Measurements taken from PMC6919601, “Identification of Plasmodium dipeptidyl aminopeptidase allosteric inhibitors by high throughput screening” (PLoS ONE, 2019).
The whole screen tested about 110,000 compounds, of which about 230 (0.21%) showed an effect of 50% or more. The list shows a part of the results.

The compounds below were run against DPAP1 (Plasmodium falciparum, UniProt Q8IIJ9) (assay: primary screen, percent inhibition; read by cleavage of a fluorogenic dipeptide substrate; higher = more effect of the substance).
Set-up: species or system P. falciparum D10 trophozoite lysates; single well
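Also: 30 min substrate incubation versus DMSO and 10 µM JCP410 controls.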

Sequence of DPAP1 (Q8IIJ9 whole entry, looked up): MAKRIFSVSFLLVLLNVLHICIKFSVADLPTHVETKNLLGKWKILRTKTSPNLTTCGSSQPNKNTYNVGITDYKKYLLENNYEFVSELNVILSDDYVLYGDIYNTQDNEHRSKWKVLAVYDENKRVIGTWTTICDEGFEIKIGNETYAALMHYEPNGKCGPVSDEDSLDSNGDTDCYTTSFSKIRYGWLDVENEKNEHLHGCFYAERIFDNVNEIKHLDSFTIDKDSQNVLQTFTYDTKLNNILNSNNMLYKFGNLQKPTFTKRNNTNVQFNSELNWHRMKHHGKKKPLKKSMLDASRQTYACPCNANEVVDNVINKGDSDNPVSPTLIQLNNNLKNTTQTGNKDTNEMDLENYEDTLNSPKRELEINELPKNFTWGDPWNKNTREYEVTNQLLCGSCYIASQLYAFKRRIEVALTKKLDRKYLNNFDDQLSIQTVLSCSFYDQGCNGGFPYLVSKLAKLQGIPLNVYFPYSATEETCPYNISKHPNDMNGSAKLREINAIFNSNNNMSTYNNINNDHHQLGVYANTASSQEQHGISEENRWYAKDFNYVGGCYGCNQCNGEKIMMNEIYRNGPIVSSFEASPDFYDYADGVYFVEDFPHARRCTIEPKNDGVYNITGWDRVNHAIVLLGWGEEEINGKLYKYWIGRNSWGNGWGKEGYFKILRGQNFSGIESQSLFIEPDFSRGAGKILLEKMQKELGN

Row | SMILES | % Inhibition @ 10 uM [%]
1 | COc1cccc(S(=O)(=O)NCc2ccc(C(=O)N3CCN(C)CC3)cc2)c1 | -1.61
2 | O=C(COc1ccc(Cl)cc1)Nc1ccc(S(=O)(=O)N2CCCCC2)cc1 | 0.0974
3 | Cc1cc(C)c(C#N)c(SCC(=O)Nc2cccc3ccccc23)n1 | -0.736
4 | CC1CCCCN1Cc1c(O)ccc2ccccc12 (stereo not drawn) | -2.24
5 | COc1ccc(-c2cc(C(F)(F)F)nc(SCC(=O)Nc3cccnc3)n2)cc1 | -2.09
6 | CCN(CC)CC(=O)N1c2ccccc2Sc2ccc(C(F)(F)F)cc21 | -3.6
7 | CC(=O)N1Cc2ccccc2C(C)CC12CCCC2 (stereo not drawn) | -1.37
8 | CCOC(=O)N1CCC(NC(=O)C(C)n2c3ccccc3c3cnn(C)c(=O)c32)CC1 (stereo not drawn) | -0.281
9 | CCN(CC)CCCCOc1cccc2ccccc12 | 3
10 | NS(=O)(=O)c1ccc(CCNS(=O)(=O)c2cccc3nsnc23)cc1 | 5.11
11 | Cc1cc(Cl)ccc1OCC(=O)NCCOc1nc(N(C)C)nc(N2CCCCC2)n1 | 0.401
12 | Cc1ccc(C2SCC(=O)Nc3c2c(C)nn3C2CCOC(C)(C)C2)cc1 (stereo not drawn) | -7.86
13 | CC(Nc1c([N+](=O)[O-])cc([N+](=O)[O-])c2ccccc12)c1ccccc1 (stereo not drawn) | -6.22
14 | CCN1C(=O)C(CC(=O)Nc2cccc(C(F)(F)F)c2)S/C1=N\c1cccc(OC)c1 (stereo not drawn) | 4.56
15 | CCOC(=O)C1CCN(S(=O)(=O)c2cc(Cl)ccc2Cl)CC1 | -0.292
16 | O=C(NC1CCCCCCC1)c1cnc2ccc(S(=O)(=O)N3CCOCC3)cc2c1O | -2.26
17 | Cc1c(C(=O)N2CCC(Cc3ccccc3)CC2)oc2ccc(S(=O)(=O)N3CCOCC3)cc12 | -4.06
18 | O=C(NC1CCS(=O)(=O)C1)/C(=C\c1cccc(Oc2ccccc2)c1)NC(=O)c1ccccc1 (stereo not drawn) | -5.28
19 | COc1[nH]c2ccccc2c1C=C(C#N)C#N | 0.27
20 | CSc1ccccc1N1CCN(C(=O)N[C@@H](CC(C)C)C(=O)NCC#N)CC1 | -5.2
21 | COc1cc(/C=C2/C(=O)/C(=C/c3cc(OC)c(OC)c(OC)c3)C3CCC2N3C)cc(OC)c1OC | -2.12
22 | CCOC(=O)N1CCN(C(=O)C2CCN(c3nc4ccc(OC)cc4s3)CC2)CC1 | -5.51
23 | Cc1nc(N2C(=O)c3oc4ccccc4c(=O)c3C2c2ccc(C(C)(C)C)cc2)sc1C (stereo not drawn) | 2.16
24 | CC1CCCCC1/N=c1/c(-c2ccccc2)c(O)c1=O (stereo not drawn) | -4.37
25 | CN(C)c1ccc(/C=C/CN2CCN(C/C=C/c3ccccc3)CC2)cc1 | -0.292

Row | SMILES | % Inhibition @ 10 uM [%]
26 | Nc1nonc1C(=O)NCCNC(=O)c1cccc(Br)c1 | 1.25
27 | CCCNC(=O)C1CCCN(c2nn3cc(-c4ccc(F)cc4)nc3s2)C1 (stereo not drawn) | 3.95
28 | Cc1nn(C(=O)CCCC(=O)NCCCN2CCOCC2)c2ccccc12 | -1.11
29 | C/C=C/C[C@H](NC(=O)c1ccccc1)C(=O)NCC#N | -1.83
30 | COCCOC(=O)C1=C(C)N=C2SCCC(=O)N2C1/C=C/c1ccccc1OC (stereo not drawn) | -6.78
31 | Cc1cccnc1NC(=O)C1CCCN(c2ncnc3onc(C)c23)C1 (stereo not drawn) | -3
32 | COc1ccccc1C(NC(=O)C(C)C)c1ccc2cccnc2c1O (stereo not drawn) | -1.48
33 | C=CCNC(=O)c1cc2c(=O)n3cccc(C)c3nc2n(CCOCCO)c1=N | 1.97
34 | CCC1CCCCN1C(=O)c1cc(-c2ccc(C)cc2)on1 (stereo not drawn) | -5.2
35 | NS(=O)(=O)c1ccc(CNC(=O)C2CCCCC2)cc1 | 3.72
36 | O=c1c(Oc2ccccc2Cl)c(C(F)(F)F)oc2cc(O)ccc12 | -0.0735
37 | C=CCN(c1nccs1)S(=O)(=O)c1ccc(C)cc1 | 0.558
38 | COc1ccc(OCC(=O)Nc2c(C(=O)N3CCN(C)CC3)oc3ccccc23)cc1 | -4.22
39 | CC1=C(C#N)C(c2cccnc2)C2=C(O)CC(C)(C)CC2=N1 (stereo not drawn) | -4.03
40 | CCCN(Cc1cccs1)C(=O)Nc1sc2c(c1C(=O)OCC)CCCC2 | 0.623
41 | CC(C)OCCCn1c(=O)c2ccccc2n2c(-c3cccc(F)c3)nnc12 | 1.68
42 | CCCN(Cc1ccncc1)CC1CC1 | -2.95
43 | COc1ccccc1N1CCN(C(=O)CN(c2ccccc2Br)S(C)(=O)=O)CC1 | -2.6
44 | O=C(CCCc1ccccc1)Nc1ccc(Cl)cc1 | -0.712
45 | COC(=O)NC(=O)/C=C/c1ccccc1 | -0.636
46 | COc1ccc(/C=c2/sc3nc(=O)c(Cc4ccccc4)nn3c2=O)cc1OC | 10.8
47 | CCCC(=O)NCn1nnc(-c2ccncc2)n1 | 4.19
48 | COc1ccccc1NC(=O)[C@@H]1C2C=CC(C2)[C@@H]1C(=O)O (stereo partly drawn) | 0.774
49 | CCC(CC)=C(C#N)C(=O)Nc1ccc(Cl)cc1 | -0.883
50 | CCOc1c(Cl)cc(C(=O)Nc2cccc(C(C)=O)c2)cc1Cl | 14.1

Row | SMILES | % Inhibition @ 10 uM [%]
51 | CCOc1ccccc1N1CCN(S(C)(=O)=O)CC1 | -0.95
52 | Cc1[nH]c2c(C)ccc(F)c2c1CCNC(=O)COc1ccc(F)cc1F | -0.891
53 | O=C(C1Sc2nnc(-c3ccccc3)n2NC1c1ccc(Cl)cc1)N1CCOCC1 (stereo not drawn) | 1.72
54 | CCO/C(O)=C1\C(C)=Nc2nnnn2C1c1ccc(OC)c(OC)c1 (stereo not drawn) | 1.39
55 | CCc1nn2c(=O)cc(COc3ccc(/C=C(\C#N)c4nc5ccccc5[nH]4)cc3)nc2s1 | -0.495
56 | Cc1ccc(Cn2c3ccccc3n3cc(C)nc23)cc1 | 3.04
57 | Cn1c(=O)c2ccccc2n2c(CCC(=O)NC3CCN(Cc4ccccc4)CC3)nnc12 | 5.68
58 | CSc1ccc(/C=C2\CN(C)CC3=C2OC(N)=C(C#N)C3c2ccc(SC)cc2)cc1 (stereo not drawn) | 2.38
59 | CCc1ccc(CN2CCN(C(=O)c3cccc(OC)c3)CC2)cc1 | -1.98
60 | C=Cc1ccc(Cn2c(C(=O)O)c(CNCc3cccc(Cl)c3)c3ccccc32)cc1 | 6.59
61 | CCc1nnc(NC(=O)CSc2nc(C(F)(F)F)cc(C)c2C#N)s1 | 59.2
62 | CCN1CCC(N2CCC(C)CC2)CC1 | 1.57
63 | CCCN1CCCC(C(N)=O)C1 (stereo not drawn) | -0.222
64 | Cc1ccc(C(=O)CCC(=O)NC(Cc2ccccc2)c2ccccc2)cc1 (stereo not drawn) | 3.47
65 | COc1ccccc1OCC(O)CN1CCC(C)CC1 (stereo not drawn) | -1.47
66 | Cc1cccc(OCC(=O)N(Cc2ccco2)Cc2ccco2)c1C | 5.43
67 | COc1cc(C(=O)N2CCN(c3ccc(C)c(C)c3)CC2)cc(OC)c1OC | -1.02
68 | COc1ccc(-c2cc(C(F)(F)F)nc(SCC(=O)N3CCCCC3C)n2)cc1 (stereo not drawn) | 0.778
69 | Cc1ccc2c(c1)cc1c(=O)n(CC(=O)N3CCC(Cc4ccccc4)CC3)nc(C)n12 | 3.29
70 | CSC1=C(C#N)C2(CCCC2)C(C#N)C(=O)N1 (stereo not drawn) | -0.239
71 | O=C(Cn1c2c(c(-c3ccccc3Cl)cc1=O)CCC2)NCc1cccs1 | -1.46
72 | Cc1ccc(C)c(NC(=O)c2ccc(N3C(=O)C4C5C=CC(C5)C4C3=O)cc2)c1 (stereo not drawn) | -5.14
73 | CC(C)SC1=NN2CCCC(=O)N=C2S1 | 4.49
74 | CC(C)(C)CC(=O)Nc1ccc(S(=O)(=O)N2CCCC2)cc1 | -1.04
75 | COc1ccc(S(=O)(=O)NC(C)c2ccccc2)cc1-c1nnc2c3ccccc3c(C)nn12 (stereo not drawn) | 0.628

Row | SMILES | % Inhibition @ 10 uM [%]
76 | Cc1onc(-c2c(Cl)cccc2Cl)c1C(=O)NCc1ccc2c(c1)OCO2 | -5.28
77 | COc1ccccc1CN1CCN(Cc2ccc(Br)cc2)CC1 | 11.5
78 | Cc1ccc(CN2CCCN(Cc3c(F)cccc3Cl)S2(=O)=O)cc1 | -1.59
79 | Cc1c(NC(=O)c2cccs2)c(=O)n(-c2ccccc2)n1C | 2.22
80 | COc1ccc(C(=O)c2nccc3ccccc23)cc1 | 3.59
81 | CC1C=CCC2C(=O)N(c3cccc(C(=O)Nc4ccccc4)c3)C(=O)C12 (stereo not drawn) | -2.8
82 | Oc1ccccc1C1OCC2(CO1)COC(c1ccccc1O)OC2 (stereo not drawn) | 3.6
83 | Cc1ccc(C)c(NC(=O)C2CC=CCC2C(=O)O)c1 (stereo not drawn) | -3.37
84 | CC1=C(C(=O)OCC2CCCO2)C(c2ccc(Br)cc2)NC(=O)N1 (stereo not drawn) | 1.13
85 | Cc1ccc2cc3cc(C(=O)NC(C)C)oc3nc2c1 | 0.208
86 | Cc1ccc(CN(C(=O)NC23CC4CC(CC(C4)C2)C3)C2CCN(Cc3ccccc3)CC2)o1 | -5.3
87 | Cn1c(=O)c(S(=O)C2CCCCC2)c(O)c2ccccc21 (stereo not drawn) | -0.413
88 | CCCCN(CC)CCCNC(=O)C1CCN(S(=O)(=O)CC)CC1 | 2.18
89 | Cc1ccc(-c2csc(/C(C#N)=C/c3cccc4ccccc34)n2)c(C)c1 | -0.546
90 | OCCN(CCO)CCc1ccccc1 | 1.9
91 | COc1ccc(/C=C2/Sc3ccccc3C2=O)c(OC)c1 | -5.9
92 | c1ccc2c(c1)nc(NCc1ccncc1)n2CCN1CCCCC1 | 0.032
93 | COc1cccc(/C=C2/CCCC3=C2OC(N)=C(C#N)C3c2cccc(OC)c2OC)c1OC (stereo not drawn) | 3.94
94 | N#CC1=C(N)Oc2cc(N)ccc2C1c1ccsc1 (stereo not drawn) | -4.11
95 | CCN1C(=O)C2(C(C#N)=C(N)Oc3[nH]nc(-c4ccc(C)cc4)c32)c2ccccc21 (stereo not drawn) | 0.658
96 | CCOC(=O)c1nc2ncc([N+](=O)[O-])cn2n1 | 2.65
97 | Cc1ccsc1C1CC(=O)NC(SCc2ccccc2)=C1C#N (stereo not drawn) | -2.89
98 | O=C(Cc1ccc(Cl)cc1)Nc1ccc(S(=O)(=O)Nc2cnc3ccccc3n2)cc1 | -5.06
99 | O=S(=O)(c1c[nH]cn1)N1CCN(Cc2ccccc2)CC1 | -0.499
